Measurements as given in US20240368574A1 (BELLICUM PHARMACEUTICALS, published 2024).

Molecular target: T1, four tandem FRBL domains expressed from pBP0725 pSH1-FRBl.FRBl'.LS.FRBl''.FRBl'''
T1 chain: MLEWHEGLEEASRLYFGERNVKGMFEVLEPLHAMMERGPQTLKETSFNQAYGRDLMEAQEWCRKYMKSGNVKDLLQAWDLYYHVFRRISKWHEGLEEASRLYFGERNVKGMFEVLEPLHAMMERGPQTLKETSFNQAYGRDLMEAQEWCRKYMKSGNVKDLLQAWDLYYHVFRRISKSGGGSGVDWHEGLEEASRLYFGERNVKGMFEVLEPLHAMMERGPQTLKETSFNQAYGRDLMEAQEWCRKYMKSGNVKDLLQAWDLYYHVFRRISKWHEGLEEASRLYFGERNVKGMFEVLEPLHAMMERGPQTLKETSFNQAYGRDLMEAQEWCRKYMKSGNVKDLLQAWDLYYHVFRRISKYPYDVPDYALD
Experiment: cell-based or functional assay

B1: FKBP12v36-ΔCaspase-9 (iCaspase-9) expressed from pBP0044 pSH1-iCaspase9wt (other)
chain: [about 100 residues not spelt out]GGGSGVDGFGDVGALESLRGNADLAYILSMEPCGHCLIINNVNFCRESGLRTRTGSNIDCEKLRRRFSSLHFMVEVKGDLTAKKMVLALLELARQDHGALDCCVVVILSHGCQASHLQFPGAVYGTDGCPVSVEKIVNIFNGTSCPSLGGKPKLFFIQACGGEQKDHGFEVASTSPEDESPGSNPEPDATPFQEGLRTFDQLDAISSLPTPSDIFVSYSTFPGFVSWRDPKSGSWYVETLDDIFEQWAHSEDLQSLLLRVANAVSVKGIYKQMPGCFNFLRKKLFFKTSASRAEGRGSLLTCGDVEENPGP
- IC50 of rapamycin or C7-isopropoxy-rapamycin (the small-molecule heterodimerizer, not of a protein) for loss of SRα-SEAP reporter activity in transfected 293 cells: ~3 nM
